We go through 120 sequences from the supplement of paper PMC10126150.

Sequences with one replicate were seen in a single cluster, so their values are uncertain.

This data set relates to ATP. Kind of data set: switch fluorescence ratio, 500 uM ATP over buffer (Cy3 cluster intensity, sum of 5 cycles each) (fold (ratio)); higher = stronger signal-on switching upon ATP binding; sequences stand for … in TCGTCGGCAGCGTCAGATGTGTATAAGAGACAGTTTTTTTTTTTTTTTTTTTTTTTTT…TC. Particulars: aptamer strand: ATP DNA aptamer (quencher-CACCTGGGGGAGTATTGCGGAGGAAGG + anchor), 100 nM annealed; ATP concentration: 500 uM; one replicate. The procedure, abridged: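 Per cluster, summed Cy3 intensity from the target cycles was divided by that from the buffer cycles to give the fluorescence ratio, then averaged per switch-domain sequence. Clusters outside 100-1000 RFU were excluded. The Cy3-labelled switching-strand clusters, on a modified Illumina MiSeq flow-cell, were annealed to 100 nM quencher-labelled ATP aptamer and imaged in selection buffer, then after 15 min with 500 uM ATP at 22 °C, for five cycles with NaOH stripping and re-annealing between them.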
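Further: ATP exposure 15 min at 22 °C before imaging.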

With CCTGTGTGGG, the switch fluorescence ratio is 1.03. For TGAAAATGGG, the switch fluorescence ratio was 0.983.

Consider TTCTTCGTCT, for which the switch fluorescence ratio turned out to be 0.972. The value for TAGCTGGGAT was 1; that for GGCGAAACTG was 1.52. For the sequence CTGGATTATA, the switch fluorescence ratio amounted to 0.979.

As to TGGAAAGGCT, the switch fluorescence ratio came to 0.981. Turning to ACACGATGTT, the switch fluorescence ratio stood at 0.988. As for CGCGTGTGGG, the switch fluorescence ratio was found to be 1.1. The value for CAAGACCTGA was 1.03; that for TAGTTTACGG was 1.01. For AGGGGAACAT, the switch fluorescence ratio is 1.03. Consider TAGGAGCAAC, for which the switch fluorescence ratio was determined as 1.62. As for AGTGGTACTG, the switch fluorescence ratio is 0.993. Regarding AATAGACCGC, the switch fluorescence ratio stood at 1.1. The value for TGTACGAAAT was 1.06; that for TTTCACATCG was 1.04.

For TGCATTAGGT, the switch fluorescence ratio was 0.979. Turning to CTCACGATTG, the switch fluorescence ratio is 1. As to TGGGCTACGT, the switch fluorescence ratio worked out at 1.01. The value for GAGAGTTAGA was 1.01. On to CAAGGGATGG, for which the switch fluorescence ratio was 1.05. Turning to TGGTGCCTGA, the switch fluorescence ratio stood at 0.999. Take CTATCTTTGA: the switch fluorescence ratio turned out to be 0.984. With CGTGGTTAAA, the switch fluorescence ratio came to 0.968. Consider ACCGAGAGAC, for which the switch fluorescence ratio came to 1.5. Take AGAAGGGTGC: the switch fluorescence ratio was 1.11. As to TACGGGTGTT, the switch fluorescence ratio was determined as 1.03. For the sequence CTTTCCGTGG, the switch fluorescence ratio turned out to be 1.03.

As to GGATGAATCC, the switch fluorescence ratio stood at 0.966. In the case of TAGAAAAGTT, the switch fluorescence ratio was found to be 0.943. As to ATCAGTCGGC, the switch fluorescence ratio was determined as 1.04. For CGAGGTTTGG the value was 0.99; for GCATACTCGG, 1.56. As to GGATTAATTC, the switch fluorescence ratio was 1.04. As for TTAGACATCT, the switch fluorescence ratio was found to be 0.998. Regarding TGCAAGGTGG, the switch fluorescence ratio is 1.04. The value for TATAAACTAA was 1.03; that for TTAAATATTG was 0.994. For AATCCGATTC, the switch fluorescence ratio was determined as 1.05. On to CTGAGGGAA, for which the switch fluorescence ratio was found to be 1.05. In the case of TGAACAGAT, the switch fluorescence ratio was found to be 1.01.

Take GCCAATGTTG: the switch fluorescence ratio is 1. For ACTTTCCGAA, the switch fluorescence ratio was 1.14. In the case of GTTCTTGAGC, the switch fluorescence ratio is 1. In the case of AGGTAGGCAA, the switch fluorescence ratio came to 1.05.

Consider ACGGGAGATG, for which the switch fluorescence ratio worked out at 1.04. As to TAGTTGCCCA, the switch fluorescence ratio stood at 1.02.

On to TAGCCTGTCA, for which the switch fluorescence ratio worked out at 1. The value for GTCGGTCGCG was 1.02; that for AGTGAATTCC was 1.04; that for AGCTCCAGGG was 1.22. Turning to CTGCACCGTT, the switch fluorescence ratio worked out at 0.975. For the sequence TCGGTTTCGT, the switch fluorescence ratio was 0.956. As to GGAGGAAAG, the switch fluorescence ratio was found to be 1.04. As to CAGTGGTCTG, the switch fluorescence ratio worked out at 1.04. As for ATGTGTTGGC, the switch fluorescence ratio turned out to be 0.969.

With TCTTGCTAGT, the switch fluorescence ratio is 1. The value for ATTTGTGGAG was 1.01. Turning to CGATCAGCGT, the switch fluorescence ratio is 1.03.

With GCTTTGTATT, the switch fluorescence ratio came to 0.998.

As for CAAGAAAAAG, the switch fluorescence ratio is 1.01.

As for AAAAGTATGA, the switch fluorescence ratio was 1.06.

CTTTTAAGGG: the switch fluorescence ratio was determined as 0.979. Take TGTAAGTTGC: the switch fluorescence ratio turned out to be 0.965. Regarding GGAATACGTG, the switch fluorescence ratio turned out to be 1.1. For the sequence AGAGTCCCTG, the switch fluorescence ratio was determined as 1.02.

With AGCCTCTAAG, the switch fluorescence ratio is 1.01. For ATTATCTAAG the value was 0.998. As for ACCAGTGCA, the switch fluorescence ratio is 1.07.

Take AAATGAAGCT: the switch fluorescence ratio is 0.973. On to TCCTGCTGGA, for which the switch fluorescence ratio is 1. For GATGATTGGA the value was 0.941; for CGTACTTACT, 1.29; for CGGTCGTTGA, 1.02. In the case of TTCGCTAGTT, the switch fluorescence ratio worked out at 0.991. Consider ATGGTCAAA, for which the switch fluorescence ratio was determined as 0.989. As to AGGCAACAGC, the switch fluorescence ratio was 1.05. For ACGGCGTGCT the value was 1.01; for TGTGTGTTC, 1.01. ACGACGCTTT: the switch fluorescence ratio stood at 1.39. On to ACGTCTCTCT, for which the switch fluorescence ratio came out at 1. Turning to ACTTAGGGCC, the switch fluorescence ratio amounted to 0.962.

Consider ACAGTGTCG, for which the switch fluorescence ratio was 1.02. With ATGTTTTGAT, the switch fluorescence ratio was 1.02. For GACGGTATAG, the switch fluorescence ratio turned out to be 1.01. TGCGAGAAAG: the switch fluorescence ratio is 0.981.

For the sequence CTTTTGCAGC, the switch fluorescence ratio was 1.31. As to GAACGAATTT, the switch fluorescence ratio came out at 1.02. As for GGTAGTTATT, the switch fluorescence ratio stood at 0.995.

For GCTAATCTCG, the switch fluorescence ratio came out at 1.04.

Take GAATTGGTT: the switch fluorescence ratio was 1.02. As to CGCGAGGAGG, the switch fluorescence ratio worked out at 1.05. In the case of AGTTCGTAGC, the switch fluorescence ratio turned out to be 1.01. Turning to TCAATATTTG, the switch fluorescence ratio amounted to 0.985.

As to TCTAAGAACC, the switch fluorescence ratio turned out to be 1.03.

With TGAGAGACGA, the switch fluorescence ratio stood at 0.987.

Consider GGAGGACGTG, for which the switch fluorescence ratio was determined as 1.01. For TTGACGCGGG the value was 0.997; for GGTGTTGTAC, 0.974. The value for TTTCAAGACT was 1.1. Turning to TTGACATAAT, the switch fluorescence ratio was 0.976. Consider CAAGAACGTG, for which the switch fluorescence ratio came to 0.97. TACGCTAAAA: the switch fluorescence ratio was 1.06. Take GTGAACCCTA: the switch fluorescence ratio amounted to 1.04. In the case of TTCGTTACAC, the switch fluorescence ratio was determined as 1.11.

Turning to AATGAGGCTC, the switch fluorescence ratio was 0.994. Take AGTGTGCTCA: the switch fluorescence ratio was 1. The value for AAGGAAAGTA was 0.957. Take GGAAAGACAT: the switch fluorescence ratio was 1.03. With AGGGCGCTAG, the switch fluorescence ratio worked out at 0.958.

On to GTAAATAATG, for which the switch fluorescence ratio came to 1.02. Regarding AGCGATCAC, the switch fluorescence ratio is 3.13. In the case of GGAGAGGTGT, the switch fluorescence ratio was 1.04. With GCTGGGTCCG, the switch fluorescence ratio turned out to be 0.955. For CGAAGGGTTC, the switch fluorescence ratio came to 1.02. The value for AGGGGTGTTC was 1.05; that for CGTGTGAGAA was 0.986; that for GGACCTACTT was 1.26.

Take CGGAGTTTGG: the switch fluorescence ratio was found to be 1.06.
